About 6,900 (2%) of roughly 340,000 compounds were called active. Cut-off read from the data, not from the text of the source: active = inhibition above about 30%; inactive = below that, where a call was filed. The list shows a part of the results, in another mix than the full data. Entries without a call were filed so in the source.

Chain of UniProt P14416 (P14416 whole entry, looked up): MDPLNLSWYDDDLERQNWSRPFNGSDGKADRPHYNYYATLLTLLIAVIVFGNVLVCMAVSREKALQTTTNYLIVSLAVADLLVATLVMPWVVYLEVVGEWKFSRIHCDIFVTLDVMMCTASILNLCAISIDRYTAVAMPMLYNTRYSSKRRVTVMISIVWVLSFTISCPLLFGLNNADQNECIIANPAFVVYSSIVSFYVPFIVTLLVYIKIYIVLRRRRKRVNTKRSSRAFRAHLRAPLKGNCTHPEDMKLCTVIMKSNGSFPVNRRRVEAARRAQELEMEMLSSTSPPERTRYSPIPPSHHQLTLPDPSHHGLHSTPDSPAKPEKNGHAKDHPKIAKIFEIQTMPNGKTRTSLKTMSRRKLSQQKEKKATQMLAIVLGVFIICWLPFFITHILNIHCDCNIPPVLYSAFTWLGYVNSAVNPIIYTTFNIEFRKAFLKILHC

The assay deals with D(2) dopamine receptor (Homo sapiens) (UniProt P14416). In words: HTS Assay for Allosteric Antagonists of the Human D2 Dopamine Receptor: Primary Screen for Antagonists. Note: 0% is about no effect. The following applies: HEK293 TREx D2 cells, calcium flux, dopamine EC80; at 10 µM; stronger effect = higher value. In short, it runs like this:
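Overnight-induced (tetracycline, 30 C) HEK293 T-REx cells carrying force-coupled D2 receive a no-wash calcium dye, then compound, then EC80 dopamine at 180 s; signals are read kinetically throughout.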
On the technique in general: Calcium assays in cells follow changes in intracellular calcium, usually with a dye or a luminescent sensor.
The inhibition is the relative decrease from the control value, in per cent. As for `CCN1CCc2nc3sc(C(=O)Nc4ccccc4OC(F)(F)F)c(N)c3cc2C1`, the inhibition is -11%.

With `CCOc1ccc(CNC(=O)c2cc3cc(S(=O)(=O)N4CCCCC4)ccc3n2C)cc1`, the inhibition was -4.26%. For the compound `Oc1ccc(NCc2ccccc2OCc2ccccc2)cc1`, the inhibition is 4.92%. For the compound `COc1ccc(C(=O)NCCc2csc(-c3ccc(Cl)cc3)n2)c(OC)c1`, the inhibition is -9.73%.

On to `CSc1ccc(CCNC(=O)CN2C(=O)COc3ccc(S(=O)(=O)N4CCCCCC4)cc32)cc1`, for which the inhibition was 10.9%.

On to `Cc1ccc(Cl)cc1-n1c(SCC(=O)NCc2ccccc2)nc2n[nH]c(C)c2c1=N`, for which the inhibition was -6.6%. Regarding `COc1ccc(S(=O)(=O)Nc2cccc(-c3ccc(N4CCCCC4)nn3)c2)cc1F`, the inhibition was -5.17%. For the compound `COc1ccccc1N=Cc1nc(-c2ccccc2)oc1OC(C)=O`, the inhibition is active: 50.1%. For `COc1ccc(NC(=O)C(NS(=O)(=O)c2cccc3nsnc23)C(C)C)cc1OC` (stereo not given), the inhibition was -16.8%.

For `COc1ccc(-c2nc(S(=O)(=O)c3ccccc3)c(N3CCC(C)CC3)o2)cc1`, the inhibition was 5.76%. `CN1C(=O)c2ccccc2Sc2ccc(NC(=O)N3CCN(c4ccc(F)cc4)CC3)cc21`: the inhibition amounted to 22.1%. The value for `CC(C)(C)C(=O)NC(=S)NNC(=O)c1ccc(Cl)cc1Cl` was active: 91.2%. Turning to `CCN(CC)CCNC(=O)c1cc2c(-c3cccc(OC)c3)nn(C)c2s1`, the inhibition was 15.5%.

`CCOc1ccccc1NC(=O)Cn1c(=O)n(CCCC(=O)NCc2ccc(C)cc2)c(=O)c2ccccc21`: the inhibition is 5.41%. Consider `Cc1nn(C(C)C(=O)NCc2ccco2)c(=O)c2nn(-c3ccccc3)c(C)c12` (stereo not given), for which the inhibition was 4.14%. As for `Cc1ccc2[nH]cc(C(c3ccccc3)c3ccc(Cl)s3)c2c1` (stereo not given), the inhibition is 2.24%. Consider `COc1ccccc1OCC(=O)NCCS(=O)(=O)N1CCN(c2ccccc2OC)CC1`, for which the inhibition turned out to be 12.4%. In the case of `Cc1cccc2sc(N(Cc3cccnc3)C(=O)c3ccco3)nc12`, the inhibition is -11.7%. For `CCOC(=O)c1c(C)[nH]c(C)c1S(=O)(=O)N1CCCC(C(=O)N2CCN(c3cccc(Cl)c3)CC2)C1` (stereo not given), the inhibition was found to be 3.36%. For `COc1ccccc1C(=O)Nc1ccc(-c2cc(C(F)(F)F)nn2-c2ccccc2)cc1`, the inhibition was -26.7%. With `COc1ccc(CCNC(=O)CN(c2ccccc2)S(=O)(=O)N(C)C)cc1`, the inhibition was 13.7%. Regarding `Cc1ccc2nc(-c3ccc(C)s3)c(Nc3ccc4c(c3)OCCO4)n2c1`, the inhibition is -7.62%. With `O=C(Nc1ccc(F)c(F)c1)C(c1ccccc1)N1Cc2ccccc2C1=O` (stereo not given), the inhibition turned out to be 8.5%. Take `O=C(NCc1ccccc1Cl)c1ccc2c(c1)NC(=O)C(CS(=O)(=O)Cc1ccc(Cl)cc1)N2` (stereo not given): the inhibition was -22.4%.

On to `COc1c2c(cc3c1C(CC(O)Cc1ccccc1)N(C)CC3)OCO2` (stereo not given), for which the inhibition is active: 57.2%. For the compound `CC1CN(C(=O)N2CCC(C(=O)NCc3ccccc3F)CC2)c2cc(Cl)ccc2O1` (stereo not given), the inhibition is -9.7%.

As to `COc1ccccc1N1CCN(C(=O)Cn2c(=O)nc(-c3ccccc3)c3ccccc32)CC1`, the inhibition was 23.4%.

As to `CCOc1ccc(NC(=O)C(C)n2c(=O)cc(-c3ccccc3)c3c(C)nn(C)c32)cc1` (stereo not given), the inhibition was found to be 0.479%. In the case of `Cc1ccccc1OCCSc1nnc(-c2cccs2)o1`, the inhibition is -2.65%. As for `Cc1ccc(NC(=O)Cn2c(=O)n(CCC(C)C)c(=O)c3cccnc32)cc1C`, the inhibition is -1.22%. Then `CCC(C(=O)NCCC(C)C)N(C(=O)Cn1nnc(-c2ccc(C)cc2)n1)c1cccc(O)c1` (stereo not given), with -7.92%. Regarding `COc1ccc(Cl)cc1NC(=O)Cn1c(=O)n(Cc2ccc(F)cc2)c(=O)c2cccnc21`, the inhibition is -11.5%.

Regarding `CCc1cccc(C)c1NC(=O)CSc1n[nH]c(-c2ccccc2)n1`, the inhibition was 1.24%. Consider `Cn1ncc2c(Nc3cccc(C#N)c3)ncnc21`, for which the inhibition was -7.56%. For the compound `Cc1cc(C)cc(NC(=O)C(=O)NCC(c2cccnc2)N2CCOCC2)c1` (stereo not given), the inhibition turned out to be 6.68%. Regarding `CC1CCC2(CC1)NC(=O)N(NC(=O)c1cccc(N(C)C)c1)C2=O` (stereo not given), the inhibition was active: 33.5%.

Consider `CCOC(=O)c1ccc(NC(=O)C2=C(C)C(=O)OC23CCN(C(C)=O)CC3)cc1`, for which the inhibition is -1.27%. With `Cc1ccc(Cl)cc1NC(=O)CCn1cnc2ccccc2c1=O`, the inhibition was 21%.

Turning to `COc1cc(Nc2nc3ccc(Cl)cc3nc2-n2nc(C)cc2C)cc(OC)c1`, the inhibition was 8.46%. As for `CCOC(=O)c1cccc(NC(=O)c2cc(C)nc3c2c(C)nn3-c2ccc(C)cc2)c1`, the inhibition is -5.07%.

For `O=C(CN1C(=O)COc2ccc(S(=O)(=O)NC3CCCC3)cc21)NCc1ccccc1Cl`, the inhibition was -11.6%. Regarding `O=S(=O)(NCC(c1cccs1)S(=O)(=O)c1ccccc1)c1ccc(F)cc1` (stereo not given), the inhibition was 0.912%. In the case of `CCn1c2ccccc2c2nnc(SCC(=O)Nc3ccccc3OC)nc21`, the inhibition turned out to be 4.12%. Take `CCOC(=O)c1ccc(NC(=O)C2CCN(S(=O)(=O)c3ccc4c(c3)CCCC(=O)N4)CC2)cc1`: the inhibition was 5.41%. For `Cc1ccccc1-c1nn2c(=O)cc(CN3CCN(C(=O)/C=C/c4ccccc4)CC3)nc2s1`, the inhibition was found to be 18.7%. Turning to `CCc1ccc(NC(=O)Cn2c(=O)n(CCC(=O)N3CCc4ccccc4C3)c(=O)c3ccccc32)cc1`, the inhibition is -5.46%. For `CN1C(=O)Cc2cc(S(=O)(=O)N3CCN(c4ccc(Cl)cc4)CC3)ccc21`, the inhibition is -10.3%. With `CCOc1ccc(OCC)c(NC(=O)C2CCN(S(=O)(=O)c3c(C)noc3/C=C/c3ccccc3F)CC2)c1`, the inhibition was 8.82%.

As to `O=C(c1ccc2c(c1)OCCO2)N(Cc1cccnc1)c1nc2c(Cl)cccc2s1`, the inhibition was -16.1%. Regarding `O=C(COc1ccccc1)NCCc1csc(-c2ccc(Cl)cc2)n1`, the inhibition is -18.2%. For `COc1cccc(Cn2c(CNS(=O)(=O)c3ccc(F)c(Cl)c3)nc3cccnc32)c1`, the inhibition is -8.69%. `CCc1nn2c(=O)cc(COc3ccc(/C=C(\C#N)C(=O)Nc4ccc(F)cc4)cc3OC)nc2s1`: the inhibition is -10.3%. On to `CC(C)COc1ccc(C(=O)Nc2cc3nn(-c4ccccc4)nc3cc2Cl)cc1`, for which the inhibition amounted to 1.33%. The value for `CN1CCc2c(sc(NC(=O)Cc3ccccc3)c2C#N)C1` was active: 69.5%; that for `COc1ccc(CCn2c(=O)c3cccnc3n(CC(=O)Nc3ccc(C)c(F)c3)c2=O)cc1OC` was 4.72%. Consider `C=Cc1ccc(Cn2c(C(=O)O)c(CNC3CCCCC3)c3ccc(C)cc32)cc1`, for which the inhibition is -8.35%. `O=C(Nc1ccccc1)C1CC(=O)n2c(nc3ccccc32)N1` (stereo not given): the inhibition is active: 33.6%.

Turning to `COc1ccc(-c2nnc(SCC(=O)Nc3cccc(C(F)(F)F)c3)nc2-c2ccc(OC)cc2)cc1`, the inhibition was -9.47%. The value for `Cc1cc(C)cc(NC(=O)N2CCC3(CC2)Oc2ccccc2C(=O)N3Cc2ccccc2F)c1` was -3.95%; that for `CC1CCc2c(sc3nc(-c4cc5cc(Br)ccc5oc4=O)[nH]c(=O)c23)C1` (stereo not given) was -11.3%. Then `O=C(CCS(=O)(=O)c1cccc2nonc12)Nc1c(F)cccc1F`, with -4.41%; and `COc1ccc(Br)c(C(=O)Nc2cc3c(cc2N2CCOCC2)n(C)c(=O)n3C)c1`, with -10.9%.

Turning to `CCOc1ccc(NC(=O)c2c(NCc3cccnc3)sc3c2CCCC3)cc1`, the inhibition is -2.25%.

For the compound `CCOC(=O)c1ccc(CN(Cc2ccc(F)cc2)S(=O)(=O)c2ccc(F)c(C(=O)Nc3ccc(Cl)cc3F)c2)cc1`, the inhibition was -2.48%. On to `O=S(=O)(Nc1ccc(Br)cc1F)c1ccc2nc(-c3ccccc3)[nH]c2c1`, for which the inhibition stood at 10.5%. Take `COc1cccc(N2CCN(C(=O)c3cccc(-n4c(C)nc5cccnc54)c3)CC2)c1`: the inhibition was 8.67%. In the case of `COc1ccccc1NC(=O)N(Cc1nnc2n1CCCCC2)c1ccc(F)cc1`, the inhibition turned out to be 22.3%.

As to `COc1ccc(CCNC(=O)c2ccc(Nc3nc4ccccc4n4nnnc34)cc2)cc1OC`, the inhibition is 15.9%. On to `CC(=O)c1cccc(NC(=O)C(C)n2c(=O)cc(C)c3c(C)nn(-c4ccccc4)c32)c1` (stereo not given), for which the inhibition turned out to be 4.17%. The value for `COc1ccc(NC(=O)Cn2nnc(C(=O)NCCc3ccccc3)c2N)cc1` was 20.3%; that for `COc1ccc(OC)c(CNS(=O)(=O)c2ccc3c(c2)CCCN3C(C)=O)c1` was 10.8%; that for `O=C(NCCc1ccccc1)c1ccc2c(c1)N(Cc1ccc(F)cc1)C(=O)c1ccccc1S2(=O)=O` was 21.1%. For the compound `CCCCOC(=O)/C=C/c1ccc(OC(=O)OC)c(OC(=O)OC)c1`, the inhibition is active: 73.5%. As to `CC(C)c1ccc(NC(=O)c2cc3sc(Cl)cc3n2C)cc1`, the inhibition was 7.38%. Then `Cc1cccc(C)c1OCC(O)CN1CCN(c2ccccn2)CC1` (stereo not given), with active: 77.5%; and `Cc1cccc(N(CC(O)Cn2c3ccccc3c3ccccc32)S(=O)(=O)c2ccc(F)cc2)c1` (stereo not given), with 5.5%; and `CN(CCCNC(=O)c1cc2c(Cl)nc3ccccc3c2s1)Cc1ccccc1`, with -1.63%. For the compound `Cc1c(Cl)cccc1NC(=O)CSc1ncc2c(n1)-c1ccccc1N(C)S2(=O)=O`, the inhibition was 3.9%. `COC(=O)c1c(NC(=O)c2cc3ccccc3c(=O)o2)sc2c1CCCC2`: the inhibition was -0.23%. Then `CCOc1ccc(CCNC(=O)c2cnc3sc(N(CC)CC)nn3c2=O)cc1OCC`, with -8.7%; and `Cc1cccc(C)c1OCC(=O)Nc1ncn[nH]1`, with -2.69%; and `CCN(CC)CCNC(=O)c1c(C)oc2ncnc(N3CCOCC3)c12`, with -4.82%. Consider `Cc1cc(C)c(NC(=O)Cn2cc(S(=O)(=O)Cc3ccccc3F)c3ccccc32)c(C)c1`, for which the inhibition amounted to 11.1%. Then `Cc1ccc(-c2c(CN3CCN(c4cccc(C)c4)C(C)C3)csc2C)cc1` (stereo not given), with -6.85%; and `Cc1ccc2onc(CC(=O)N3CCN(c4ccc(F)cc4)CC3)c2c1`, with 16.1%. In the case of `Cc1sc2ncnc(NC3CCN(Cc4ccccc4)CC3)c2c1C`, the inhibition was active: 68%. In the case of `CC(C)CC(=O)N1c2nc(C(C)C)nn2C2(CCCCC2)[C@@H]2CCCC[C@@H]21`, the inhibition was -5.55%. Regarding `Cc1ccccc1CS(=O)(=O)CCC(=O)NCCCN1CCN(c2ccccc2F)CC1`, the inhibition was active: 55.2%. On to `O=C(CSc1nc2ccccc2o1)Nc1nc(-c2ccccc2)cs1`, for which the inhibition is active: 30%. Regarding `O=C(COc1ccc(Br)cc1)NCCNC(=O)c1ccncc1`, the inhibition is active: 47.3%. Turning to `COc1ccc(-n2ncc3c(NC(C)(C)CO)ncnc32)cc1`, the inhibition turned out to be 8.99%.

With `CN1CCN(C(c2cccc(Cl)c2)c2ccccc2Cl)CC1` (stereo not given), the inhibition was active: 82.6%. Then `CCOc1ccc(NC(=O)Cn2c3ncccc3c(=O)n2-c2ccc(CC)cc2)cc1`, with 0.729%; and `CCN(CC)S(=O)(=O)c1ccc(NC(=O)NCc2noc3ccc(C)cc23)cc1`, with 1.75%; and `Cc1ccc(CNC(=O)c2oc3c(c2C)-c2nn(Cc4ccc(Cl)cc4)cc2CC3)cc1`, with 4.61%.

Values taken from PubChem BioAssay AID485344 (National Center for Advancing Translational Sciences (NCATS), 2010).
